# Assay results: paper PMC4336329 (PLoS ONE, 2015)
# The whole screen tested about 310,000 compounds, of which about 14,000 (4.5%) showed an effect of 50% or more. Effects have a minus sign here. The list shows a part of the results.
# Biological target: human ether-à-go-go-related gene (hERG) potassium channel (human, UniProt Q12809)
# Assay: primary screen, population patch clamp on CHO cells stably expressing hERG
# 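Also: peak tail current of the secondary pulse compared with the same well before compound.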
# human ether-à-go-go-related gene (hERG) potassium channel, sequence (Q12809 whole entry, looked up): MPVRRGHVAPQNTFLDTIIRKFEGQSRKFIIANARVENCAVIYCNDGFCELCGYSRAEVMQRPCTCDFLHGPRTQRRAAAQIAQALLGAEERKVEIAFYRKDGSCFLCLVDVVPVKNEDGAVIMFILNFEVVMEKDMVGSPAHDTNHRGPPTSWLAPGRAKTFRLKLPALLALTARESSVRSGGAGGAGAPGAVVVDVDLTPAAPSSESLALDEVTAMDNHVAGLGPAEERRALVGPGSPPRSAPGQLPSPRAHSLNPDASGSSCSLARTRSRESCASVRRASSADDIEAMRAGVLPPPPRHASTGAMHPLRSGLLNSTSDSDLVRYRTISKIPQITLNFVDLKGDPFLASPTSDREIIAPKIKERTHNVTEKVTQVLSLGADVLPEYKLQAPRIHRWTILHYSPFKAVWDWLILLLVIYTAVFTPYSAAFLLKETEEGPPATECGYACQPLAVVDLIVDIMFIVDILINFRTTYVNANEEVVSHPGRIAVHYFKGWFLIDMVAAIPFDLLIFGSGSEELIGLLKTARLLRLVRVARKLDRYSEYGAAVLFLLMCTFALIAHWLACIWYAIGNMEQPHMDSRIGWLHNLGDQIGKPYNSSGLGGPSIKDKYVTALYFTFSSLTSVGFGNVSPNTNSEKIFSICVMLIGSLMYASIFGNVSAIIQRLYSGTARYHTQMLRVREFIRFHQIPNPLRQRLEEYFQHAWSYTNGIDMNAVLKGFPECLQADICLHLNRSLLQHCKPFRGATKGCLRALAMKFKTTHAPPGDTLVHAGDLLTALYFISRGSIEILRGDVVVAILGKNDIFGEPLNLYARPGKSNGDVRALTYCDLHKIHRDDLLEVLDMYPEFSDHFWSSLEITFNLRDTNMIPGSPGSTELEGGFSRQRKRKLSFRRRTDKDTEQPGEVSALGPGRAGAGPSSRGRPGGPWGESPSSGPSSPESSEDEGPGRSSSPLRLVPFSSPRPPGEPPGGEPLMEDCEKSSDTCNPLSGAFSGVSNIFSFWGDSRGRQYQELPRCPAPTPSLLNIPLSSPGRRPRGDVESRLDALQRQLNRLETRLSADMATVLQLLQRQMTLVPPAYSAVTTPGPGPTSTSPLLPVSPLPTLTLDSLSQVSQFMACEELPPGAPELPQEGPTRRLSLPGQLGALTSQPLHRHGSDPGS
row,Compound,"hERG current change (%, negative = inhibition) at 10uM [%]"
1,Cc1cccc(-n2ncc3c(Nc4ccc(F)cc4)ncnc32)c1,9.56
2,Cc1ccc(S(=O)(=O)NCC(=O)N(CC(=O)NC2CCCCC2)Cc2ccco2)cc1,-38.7
3,CCCCCN1CC(=O)N2Cc3[nH]c4ccccc4c3C[C@H]2C1=O,-7.47
4,COc1cc2nc(COc3ccccc3[N+](=O)[O-])oc(=O)c2cc1OC,2.86
5,CC(=O)Nc1ccc(NC(=O)C(C)OC(=O)C2CC(=O)N(CCc3ccccc3)C2)cc1 (centres unmarked),14.4
6,COC(=O)C1=C(C)NC(c2c(O)ccc3ccccc23)C(C(=O)OC)=C1C (centres unmarked),-2.31
7,Cc1ccc2c(c1)NC(=O)C(CC(=O)NCCCN1CCCCC1)O2 (centres unmarked),-0.113
8,COC(=O)c1ccc(NC(=O)CCS(=O)(=O)c2ccc(Br)s2)cc1,14.1
9,CCOc1ccc(N/C=C/C(=O)c2cc(OC)c(OC)c(OC)c2)cc1,-7.15
10,COC(=O)CN1C(=O)N/C(=C/c2cc3c(cc2OC)OCO3)C1=O,-2.11
11,Cc1ccc(CNC(=O)COc2ccc3c(c2)CCC3)cc1,-13.3
12,COc1cccc2c1OCC([C@@H]1C[C@H]3CN(Cc4cccc(Cl)c4)C(=O)[C@]34CCCN14)=C2,-45.2
13,CCOC(=O)C[C@H]1c2ccccc2S(=O)(=O)N1c1ccccc1,3.36
14,COc1ccc(C2=CC(c3ccc(F)cc3)n3nnnc3N2)cc1 (centres unmarked),21.9
15,CSc1ccc(C#N)cc1NC(=O)c1ccccc1C,-49.2
16,O=C(Nc1nnc(-c2ccc(F)cc2)s1)c1ccco1,14.5
17,CCCNC(=O)C1(CC2CC(c3ccccc3)=NO2)CCN(C(=O)OC(C)(C)C)CC1 (centres unmarked),-48.6
18,O=C(Cn1cnc2c(nnn2Cc2ccc(F)cc2)c1=O)OCc1ccccc1,-7.74
19,CN(C)C(=O)c1ccc(NC(=O)c2sccc2-c2ccccc2)cc1,11
20,CN(C(=O)C1CCCC1)C1CCS(=O)(=O)C1 (centres unmarked),17.3
21,Cc1cccc(NC(=O)c2cccc(S(=O)(=O)N3CCCC3)c2)n1,-8.05
22,COC(=O)c1scc(C)c1NC(=O)C1CCCCC1,8.47

row,Compound,"hERG current change (%, negative = inhibition) at 10uM [%]"
1,CC1(C)CC2CC(C)(CN2C(=S)NC(=O)c2ccccc2Cl)C1 (centres unmarked),3.14
2,O=C(COC(=O)c1cccs1)NCc1cccs1,16.5
3,O=C(CN1C(=O)c2ccccc2S1(=O)=O)Nc1ccccc1C(=O)NCc1ccco1,7.89
4,O=C(CSc1ccccc1)Nc1ccccc1C(=O)O,2.87
5,Cc1nc2c(-c3ccccc3)c(C)nn2c(C)c1CCC(=O)N1CCC2(CC1)OCCO2,-40.5
6,Cc1ccc(C(C(=O)NCc2ccco2)N(C(=O)Cc2cccs2)c2cccnc2)cc1 (centres unmarked),20.4
7,COc1cc(/C=N\NC(=O)c2c(C)nc3cc(C)ccn23)ccc1O,0.355
8,O=C(CN1CCCC1)N1CCCc2ccccc21.O=C(O)C(=O)O,13.8
9,COC(=O)c1cn(-c2cccc(C)n2)cn1,11.7
10,Cc1cc(C)n(C(=O)CNC(=O)c2ccc(Cl)cc2Cl)n1,-7.79
11,CCC1Oc2ccc(C)cc2N(CC(=O)N(Cc2ccncc2)Cc2ccco2)C1=O (centres unmarked),-31.4
12,CC1(OC(=O)C2CCCC2)C(=O)C=C2C=C3CCCCN3C=C2C1=O (centres unmarked),20.4
13,COc1ccc(/C=N/Nc2ncnc3sc4c(c23)CCCC4)cc1OC,0.863
14,CCO/C=C1\C(=O)N(c2ccc(OCC)cc2)C(=O)c2ccccc21,16.4
15,COCCSc1ccccc1C(=O)N1CCN(c2ccccc2OC)CC1,8.73
16,Cc1ccccc1NNC(N)=S,5.65
17,O=S(=O)([N-]c1nc2ccccc2nc1-[n+]1ccc(CCCc2ccccc2)cc1)c1cccs1,5.49
18,Cc1ccc2nc3sc(C(=O)N4CCOCC4)c(N)c3cc2c1,4.91
19,COc1ccc(CNC(=O)c2ccc(CS(=O)(=O)c3ccc(C)cc3)o2)cc1,-6.81
20,c1c2c(cc3sc(N4CCOCC4)nc13)OCO2,14.1
21,CS(=O)(=O)N(Cc1cccc(CN(C(C(=O)O)c2ccccc2)S(C)(=O)=O)c1)C(C(=O)O)c1ccccc1 (centres unmarked),17
22,COc1ccc(NC(=O)[C@H](C)NC(=O)[C@@H]2Cc3ccccc3CN2C(=O)OC(C)(C)C)cc1,8.54

row,Compound,"hERG current change (%, negative = inhibition) at 10uM [%]"
1,COc1cc2[nH]c(C(=O)NN)c(N)c2cc1OC,14.6
2,CCOC(=O)C1(CCOC)CCN(C/C=C/c2ccccc2OC)CC1,-46.1
3,CCCCS(=O)(=O)Nc1ccc2c(c1)ncn2C1CCCCC1,-32.7
4,Cc1nnc(NC(=O)CSc2nnnn2Cc2ccccc2)s1,-3.64
5,COc1cc2c(cc1OC)CN(C(=O)COc1ccc(C#N)cc1)CC2,-63.4
6,C=CCn1c(SCC(=O)c2cccs2)nc2sc(C)cc2c1=O,1.56
7,CCOC(=O)C1CCCN(CC(O)COCc2ccccc2OC)C1 (centres unmarked),-9.18
8,CC1=Nc2nc(N3CCCCC3)c(C#N)c3c4c(nc(c23)N1)N(c1ccc(C(C)C)cc1)C(=O)C4.CN(C)C=O,4.19
9,CC(C)n1c(O)c(C=NCc2ccccc2)c(=O)[nH]c1=S,33.4
10,CC(C)(C)OC(=O)NCCCC[C@H](NC(=O)c1nc[nH]c1C(=O)NC(c1ccccc1)c1ccccc1)C(=O)OC(C)(C)C,8.48
11,Cc1ccc2c(=O)n3c(nc2c1)C(Cc1ccccc1)NC(=O)c1ccc(Cl)cc1-3 (centres unmarked),9.28
12,Cc1ccc(S(=O)(=O)N(C)C)cc1NC(=O)COC(=O)/C=C/c1cnc2ccccc2n1,3.06
13,Cc1ccccc1CC(=O)Nc1ccon1,8
14,CCc1ccccc1Nc1cc(C(=O)NCc2ccccn2)c2ccccc2n1,-57.8
15,CC(=O)COC(=O)C1=NN(c2ccccc2)C(=O)CC1,23.7
16,COc1cccc(CC2(CO)CCN(Cc3cn(C)nc3C)CC2)c1,18.3
17,COc1ccc(-c2cc3ccccc3s2)cc1[C@H]1[C@H]2C=CC[C@@H](C)[C@@H]2C(=O)N1Cc1ccccc1,5.07
18,COc1ccc(-n2nnnc2S(=O)(=O)Cc2ccc(C(=O)O)cc2)cc1,4.17
19,Cc1ccc(/C=N\NC(=O)Cc2noc3ccccc23)cc1,15.6
20,O=C1c2ccc(Oc3cccc([N+](=O)[O-])c3)cc2C(=O)N1c1ccccn1,4.5
21,Cc1ccc(NC(=O)c2cc([N+](=O)[O-])ccc2N2CCOCC2)cc1S(=O)(=O)N(C)C,-52.8
22,Cc1ccc(-c2nnc(-c3ccccc3S(=O)(=O)Cc3ccc(Cl)cc3)o2)cc1,10.5

row,Compound,"hERG current change (%, negative = inhibition) at 10uM [%]"
1,COc1ccc(N(CC(=O)NCCc2ccccc2)C(=O)CCC(=O)Nc2nccs2)cc1,14.9
2,CC(Oc1ccccc1F)C(=O)NNC(=O)CCNC(=O)c1ccccc1Cl (centres unmarked),21.6
3,O=C(c1ccc(Br)c(S(=O)(=O)N2CCCCC2)c1)N1CCCCC1,-16.2
4,O=C(CN1C(=O)c2ccccc2S1(=O)=O)N1CCOCC1,-1.82
5,Cc1ccc(NC(=O)CN(C)C(=O)c2sc3cc(Cl)ccc3c2Cl)cc1,9.95
6,COc1ccccc1-c1c(C)[nH]n2c(=O)c(Cc3ccccc3)c(C)nc12,-2.24
7,CCCCN1C(=O)C(=O)N(CC(=O)Nc2cc(S(=O)(=O)N(C)C)ccc2C)C1=O,6.6
8,C(=N\Nc1ccc2ccccc2n1)/c1ccc2c(c1)OCCO2,0.268
9,C/C(=N/NC(=O)c1ccc2nc[nH]c2c1)c1cccs1,-2.29
10,Cc1nc2nc(SCC(=O)O)nn2c(C)c1Cc1ccccc1Cl,30.8
11,CCCc1nn2c(=O)cc(CSCC(=O)Nc3ccccc3OC)nc2s1,14.8
12,CCC1=NN(C(=O)Cc2ccc([N+](=O)[O-])cc2)C(O)(c2ccc(Br)cc2)C1 (centres unmarked),-26
13,Cc1cc(C)c(C)c(C(=O)c2ccccc2C(=O)O)c1C,10.1
14,COc1ccc2sc(-c3ccccc3OC)c(C#CC(C)(C)O)c2c1,14.6
15,COc1cc(C(=O)c2c(C)c(CCC#N)n3ccccc23)cc(OC)c1OC,-15
16,CCC(=O)N(CCC(Cc1ccccc1)c1ccc2c(c1)OCO2)Cc1ccccc1F (centres unmarked),-5.97
17,O=C(Nc1ccccc1F)C1CCN(C(=O)Cc2ccccc2)CC1,-2.34
18,CCC(=O)c1cc2c(cc1NC(=O)c1ccc(C)cc1)OCCO2,2.46
19,Cc1ccsc1/C=C/c1ccc2ccccc2n1,7.43
20,CCc1ccc(N2C(=O)CC(Cn3nc(C)cc3C)C2=O)cc1 (centres unmarked),8.91
